Experimental data reported in the RNAGym collection of RNA variant scans (doi:10.7554/elife.90254).
The source gives no read counts; variants with many changes may rest on few reads.

B1: LINE1-full (parent)
chain: UACGUAGGUGGUUUUCCCCUGAUAGUGCUAAGGGGGCCUGGAAGUUUGGACUGGGCAGAGCUCAACACAGCGUGGCAAAGUGGCUGUGGCUAGACUGCCUCUCUGGAUUCCUCGUCACUCAGCAGGGCAUCUCUGAGAGAAAUGCC

Variants of: B1
Experiment: self-cleavage, relative activity (ratio to wild type); higher = more cleavage; in vitro, sequencing; the parent is a self-cleaving ribozyme

Row | Variant | self-cleavage
1 | G35A U62C U104C | 0.04
2 | A78U U96A U104C | 0.09
3 | A42G A59G A77G | 0
4 | U15A A22G U108C | 0
5 | U26G G27A A67U U87A | 1.09
6 | A30G U47C U115A U130C | 1.62
7 | G10A U47A U100C U108C | 1.75
8 | A6U A42G A57G G114A U143C | 0.69
9 | U1C A77G U102C U119C | 0.48
10 | G32A G34A U52A A107G U143A | 0.66
11 | U14C U20A U45C A77G | 2.54
12 | U20A A67G G75A | 0.54
13 | U20C A42G U73C U109C | 0
14 | U26A U73A U96C | 0.11
15 | G11A U81C A117G A124U | 1.62
16 | U26A A124G U134A | 0.14
17 | G32A A69U G72A | 0.05
18 | A24G G58U U62C | 0.09
19 | G25U C63A A140U | 0.03
20 | U26A A43G A50G A124G | 0
21 | U26C A42G U112A | 1.39
22 | A65G U73C A78U | 0
23 | U96C U104C U132C | 0.18
24 | U1A A24G U52A G72U C84U | 0.62

Row | Variant | self-cleavage
25 | A43G A59G U91A | 0.19
26 | U12C A79G A140G | 1.45
27 | U9A A79U A92U | 0.58
28 | C51A C84G A94G U100C | 0.11
29 | A78U C103U A136G A141G | 1.48
30 | U62C C84U G114A | 0.03
31 | U102C U115A A124C A129U | 1.36
32 | U26C U108C C113U | 0.97
33 | U14A U39C U85A G105U | 0.03
34 | A31G A92U U104A U112C | 0.69
35 | U9C C90A A141G | 0.07
36 | C37A U47C U85C U112C | 0.2
37 | U46C C84G U96A | 0.09
38 | G34C G48A U73A A78G | 0.87
39 | U1G A30G A65U A107G | 0.6
40 | U9G U26C U81C | 0.66
41 | A42G G49C A64G | 0
42 | U13A G93U U115A A136U | 0
43 | A24G G75U A140G | 1.21
44 | U13C U26C A30U | 1.02
45 | A57G A59G A79G | 0.85
46 | U13C G36U A79G | 0.66
47 | A50G A77U U143A | 0.5
48 | U20C U87A A121G | 0.15

Row | Variant | self-cleavage
49 | U13C A107G U130C | 2.6
50 | A65G U73C G75A A79U A142C | 0.04
51 | A2G A140G A141G | 1.63
52 | G11A U45C G54C | 0.82
53 | A31U U112C U130C | 0.57
54 | G40U A78G A117G | 1.63
55 | G36A U104C U108C G139A | 1.79
56 | A59U A79G U85A A136U | 0.08
57 | U39C A77G U87C | 0
58 | U5C A42G C90U C123A A124G | 0.07
59 | G49A G97C U100C | 0.08
60 | G40A A129G U130A A138G | 1.51
61 | U14C A57G G82A | 0.99
62 | U96C U132C A142G | 0.14
63 | A31U A107G A138G | 1.44
64 | C98A U115C A142G | 0.83
65 | U14C U47A U85A A138G | 0
66 | G34U A129U U132G | 2.04
67 | U5A G32A A57G U143C | 0
68 | U1G U12C C38U U87C U112C A117G | 0
69 | G74A U100C U143C | 1.48
70 | U12C U39C U81A | 1.21
71 | U12A U29A A78C U104A | 1.56
72 | U13A A64G A67U | 0.12

Row | Variant | self-cleavage
73 | A57G U119C A129G | 2.7
74 | U9A U87A A92G | 0.14
75 | U12G C19U U73C | 1.08
76 | U26A U39C C123A | 0.83
77 | G41U A59G A117G A140G | 0.1
78 | A22U A77G A138G | 1.57
79 | U47C A117G A136G | 2.1
80 | U13C C116U A124G | 0.48
81 | U1C U13C U96C U115A | 0.07
82 | G49A U81C C145A | 0.98
83 | A2G U52C G127U | 1.09
84 | C28U G32A U47C | 0.69
85 | G34A U81A U108C C116U A140U | 2.22
86 | U14C U81C A92U | 2
87 | C17U U73C C84G C146U | 0.03
88 | U62C U100C A136G U143C | 0
89 | U9C U12G A43G A77U | 1.51
90 | A2U U26C U81G G105A | 1.28
91 | A31G U62A C66U | 0.06
92 | U15C U96C C103A | 0.25
93 | A22U U45A A140G | 0.57
94 | U29A A64U A142G | 0.23
95 | G32A G72A U100C A117G U119C | 1.7
96 | A31U U39A C90A A141G | 0.04

Row | Variant | self-cleavage
97 | A24G A50G U52A A117G | 0
98 | C99U A124U G125U C128U | 1.05
99 | C110G U119C A141G | 1.47
100 | A57U U85A A94G U132G A140G | 0
101 | U23A A24U U73A A78G | 0.19
102 | A24G U52C A124G | 0.32
103 | U39A A69U U96A | 0.02
104 | U13A A59G U62C U112C A142G | 0
105 | U13C G48A A142G | 1.13
106 | U29C U45C G54A U85A | 0.08
107 | C37A G54U A94G U109C | 0.03
108 | U15C A30U U62C | 0.11
109 | U45G A69G A94U | 0.04
110 | U9A A57U U112C | 0.04
111 | U26C A50U U81C A94G | 0.54
112 | A69U C71U U73C A107U U108C | 0.07
113 | G7A A69G G114A U143C | 0.44
114 | U26A U109A U115C | 1.24
115 | U9A A31U U112C | 0.86
116 | G41U U47A A77G | 1.6
117 | U20A U132C A142G U143A | 1.14
118 | C19U U26C G58U A77G | 0.02
119 | U12G A24G U87A U100C A138U A142U | 0.16
120 | A22G A64G A94G C123U | 0.12

Row | Variant | self-cleavage
121 | U14C C90U U119A | 0.06
122 | A30U U62C U104C A124U | 0
123 | U14C G33A A42G U81A U112A U119C | 1.37
124 | A42U U45C A79G | 1.15
125 | U13C A42G A57G A64C | 0
126 | U9C A64C U109C | 0.9
127 | U46C U112C U134C A138G | 2.85
128 | U15C U45A U115A | 0.98
129 | U46A A67G U87A U130C A142U | 0.07
130 | U9G A31U C38A | 0.92
131 | U100A U119C A121U | 0.97
132 | U81C U104C A141G A142G | 1.97
133 | U39C G74A A78G | 0.22
134 | U9A A77G U81G U100C | 0
135 | C19U A31U U100C A121U | 0.35
136 | U47C U81C A136U | 1.72
137 | U14C G34A U85G A141G | 0.2
138 | U13A U23A U26A A140G | 1.84
139 | A65G G75U U132G | 0
140 | U13C A30G U100C | 1.13
141 | U12C U47C U108C | 2.04
142 | U14C U20C A107G | 0.18
143 | U46A U100A G114A | 0.65
144 | U13C A92G U96C | 0

Row | Variant | self-cleavage
145 | A69G U85A U108C C146A | 0.1
146 | C19A U73C A138G | 1.19
147 | A2U U46C A65U G72A A140G | 0
148 | U14C U108A U109G A121G A141G | 0.88
149 | U15G A31G A141G | 2.3
150 | A57G U62A A77G U112C | 0
151 | U45C A79G A129G | 0.61
152 | A64G A65G A129G A140G | 0
153 | U1C U23C A64G | 0.48
154 | U62C G72A U108A | 0.02
155 | U73C U87A U104C C123U | 0.15
156 | U29C A42G A140U | 1.38
157 | U12C U46C U85C | 0.15
158 | U12C A50G U62C | 0
159 | C3U U109A U119C | 1.11
160 | G114A A117G A142G | 2.23
161 | G105U C116U U119C | 1.76
162 | U9C U115C U143C | 1.58
163 | A57U G74A A117G A136G | 0.11
164 | A65G U73A A140G | 0.05
165 | C28G A31G U102C | 0.92
166 | G27A U112C A140G A142G | 0.12
167 | G54A A69U G70C A78G | 0.02
